The values that follow come from PubChem BioAssay AID602293 (National Center for Advancing Translational Sciences (NCATS), 2012).

Hit rate of the full screen: of about 1,300 compounds, about 30 (2%) were called active. Not shown: some 10% with an inconclusive outcome. Calls follow the shape of the dose curve; as a rule, active = well fitted inhibition curve with a large enough effect; inconclusive = small, poorly fitted or top-dose-only effect; inactive = flat fitted curve, though single readings scatter. The list shows a part of the results.
% is scaled to controls: 0 for no effect and ±100 for the full control effect; potency is read from the fitted curve at half-maximal effect.

The experiment in a line: qHTS for antagonists of the Thyroid Stimulation Hormone Receptor: Hit Validation in HTRF Activity in a Luteinizing Hormone Receptor Cell Line. To be noted: LHR-expressing cell line, cAMP HTRF, antagonist mode; series mostly up to 58 µM; activity change, negative = inhibition: at the top concentration. An outline of the steps:
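Counter-screen on LH receptor–transfected HEK 293 cells: 30 min compound exposure at room temperature in medium containing 100 uM RO 20-1724 phosphodiesterase inhibitor. Cellular cAMP read by competitive HTRF after lysis with d2-cAMP and anti-cAMP antibody (330 nm excitation; 615/660 nm emission).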
Take `COc1ccc(CCNC(=O)c2ccc(Cl)c(S(=O)(=O)N3CCCCCC3)c2)cc1`: the “activity change, negative = inhibition” value was inactive: -4.42%.

Turning to `CSc1nc(-c2ccc(Cl)cc2Cl)[nH]c(=O)c1C#N`, the “activity change, negative = inhibition” value was inactive: -0.495%.

Regarding `CCN(CC)S(=O)(=O)c1cccc(C(=O)Nc2nc3cc4c(cc3s2)OCCO4)c1`, the “activity change, negative = inhibition” value was inactive: -9.09%.

For `CCCCCCCC[n+]1cccc2c3ccccc3ccc21`, the “activity change, negative = inhibition” value is inactive: -5.79%.

`Clc1ccccc1CN(Cc1ccccc1)c1ncnc2nc[nH]c12`: the “activity change, negative = inhibition” value was inactive: 1.01%.

In the case of `Cc1ccc(CCNC(=O)C2CCN(S(=O)(=O)c3cccc4cccnc34)CC2)cc1`, the “activity change, negative = inhibition” value is inactive: 0.0832%.

As to `CCCCCCCCCC[n+]1cccc2c3ccccc3ccc21`, the “activity change, negative = inhibition” value is inactive: -3.44%.

As for `COc1ccc(NC(=O)CSc2nc3[nH]c(=O)[nH]c(=O)c3s2)cc1OC`, the “activity change, negative = inhibition” value is inactive: 3.36%.

Take `CC1=CCC2C(=O)N(c3ccc(C(=O)Nc4ccccc4Cl)cc3)C(=O)C2C1` (configuration not stated): the “activity change, negative = inhibition” value was inactive: -1.17%.

As for `Cc1cccc(C)c1NC(=O)N1CCC(C(=O)c2ccc(F)cc2)CC1`, the “activity change, negative = inhibition” value is inactive: 0.977%.

Turning to `CC(NC(=O)c1cccs1)C(S)c1ccccc1` (configuration not stated), the “activity change, negative = inhibition” value was inactive: 1.27%.

On to `CC1=C(OC(=O)c2ccccc2)C(C)(C)C(c2ccccc2)OC1=O` (configuration not stated), for which the “activity change, negative = inhibition” value was inactive: -1.53%.

As to `COc1ccc(N(CC(=O)Nc2cc(Cl)ccc2OC)S(=O)(=O)c2c(C)noc2C)cc1`, the “activity change, negative = inhibition” value is inactive: 1.46%.

Turning to `CC1CCCN(S(=O)(=O)c2csc(C(N)=O)c2)C1` (configuration not stated), the “activity change, negative = inhibition” value is inactive: 0.101%.

Turning to `O=C(NCc1ccc(F)cc1)c1ccncc1`, the “activity change, negative = inhibition” value was inactive: -0.065%.

As for `Cc1cccc(CSc2nc3ccccc3c(=O)n2C)c1`, the “activity change, negative = inhibition” value was inactive: -2.78%.

`Cc1ccc(NC(=O)c2ccccc2NS(=O)(=O)c2ccc(F)cc2)cc1S(=O)(=O)N1CCCCC1`: the “activity change, negative = inhibition” value is inactive: -6.36%.

For `O=C(c1ccco1)N1CCN(Cc2csc(-c3ccccc3Cl)n2)CC1`, the “activity change, negative = inhibition” value was inactive: -0.0961%.

As to `COC(=O)c1cc(=O)n(-c2c(Cl)cc(C(F)(F)F)cc2Cl)[nH]1`, the “activity change, negative = inhibition” value is inactive: -1.05%.

Regarding `CC(=O)N1CCc2cc(Br)cc(S(=O)(=O)N3CCC(C(=O)O)CC3)c21`, the “activity change, negative = inhibition” value is inactive: -0.35%.

On to `C=CCOc1c(Cl)cc(CNc2ccc(N(C)C)cc2)cc1OC`, for which the “activity change, negative = inhibition” value was inactive: 1.33%.

Consider `CC(=O)c1c(O)cc(O)c(C(C)=O)c1O`, for which the “activity change, negative = inhibition” value was inactive: 2.57%.

As for `Cc1ccc(C(=O)Nc2nc(-c3ccc(F)cc3)cs2)o1`, the “activity change, negative = inhibition” value is inactive: -3.58%.

On to `Cc1ccc(-n2c(Cl)c(Cl)nc(Cl)c2=O)cc1`, for which the Potency was active: 37.9 µM.

As for `Cc1ccc(S(=O)(=O)N2CCN(C(=O)CCn3cncn3)CC2)cc1`, the “activity change, negative = inhibition” value is inactive: 1.9%.

Regarding `O=C(OCn1ncc(Cl)c(Cl)c1=O)c1ccccc1Cl`, the “activity change, negative = inhibition” value was inactive: -5.91%.

As to `CN(C)S(=O)(=O)c1ccc(N2CCN(S(=O)(=O)c3ccc(F)cc3)CC2)c(Cl)c1`, the “activity change, negative = inhibition” value was inactive: -5.48%.

For the compound `O=C(Nc1nnc(C2CC2)s1)c1ccc(Cl)c(S(=O)(=O)N2CCc3ccccc3C2)c1`, the “activity change, negative = inhibition” value was inactive: -1.31%.

For the compound `CN(c1cccc(Cl)c1)S(=O)(=O)c1cccc(C(=O)NCc2ccncc2)c1`, the “activity change, negative = inhibition” value was inactive: -0.575%.

`Cc1cc(C)cc(N=C2NC(=O)CS2)c1`: the “activity change, negative = inhibition” value is inactive: 1.67%.

With `Cc1ccc(/C=N/n2c(COc3ccccc3)n[nH]c2=S)s1`, the “activity change, negative = inhibition” value is inactive: 1.61%.

As to `COC(=O)c1ccc(NC(=O)c2ccccc2)o1`, the “activity change, negative = inhibition” value was inactive: -1.6%.

Turning to `O=C(Nc1ccccc1C(=O)N1CCN(c2cccc(Cl)c2)CC1)C1=CSCCO1`, the “activity change, negative = inhibition” value is inactive: -1.81%.

With `O=C(Nc1ccc2c(c1)CCC2)c1cc(S(=O)(=O)Nc2ccc(F)cc2)c(Cl)cc1Cl`, the “activity change, negative = inhibition” value is inactive: 1.39%.

On to `CCOC(=O)C1C(c2cc(OC)c(OC)c(OC)c2)NC(=S)NC1(O)C(F)(F)F` (configuration not stated), for which the “activity change, negative = inhibition” value was inactive: -2.18%.

On to `O=C(CCc1ccccc1)N1CCN(Cc2ccc(F)cc2Cl)CC1`, for which the “activity change, negative = inhibition” value was inactive: 0.206%.

On to `O=C1c2cccc3c(O)ccc(c23)C(=O)N1c1ccc(Cl)cc1`, for which the “activity change, negative = inhibition” value is inactive: -1.55%.

Take `COc1ccc(N2CCN(C(=O)[C@H](C)NC(=O)c3ccccc3Cl)CC2)cc1`: the “activity change, negative = inhibition” value was inactive: -1.19%.

As to `Cc1ccc(S(=O)(=O)NCCNS(=O)(=O)c2ccc(C)cc2)cc1`, the “activity change, negative = inhibition” value is inactive: 2.19%.

Regarding `O=C(O)c1cccc(NC2=C(Cl)C(=O)c3ccccc3C2=O)c1`, the “activity change, negative = inhibition” value is inactive: -2.21%.

Regarding `CC(=O)c1cccc(NS(=O)(=O)c2cc(-c3cnc(C4CC4)o3)ccc2C)c1`, the “activity change, negative = inhibition” value is inactive: 1.36%.

For the compound `Cc1ccc(F)cc1CNC(=O)c1cc(COc2ccc3ncccc3c2)on1`, the “activity change, negative = inhibition” value was inactive: -3.93%.

Regarding `CC(C)(C)n1ncc2c(=O)n(Cc3ccccc3Br)cnc21`, the “activity change, negative = inhibition” value was inactive: -3.44%.

On to `CCOC(=O)c1cc(C(=O)Nc2sc3c(c2C#N)CCCC3)nn1C`, for which the “activity change, negative = inhibition” value was inactive: -2.35%.

Turning to `CC(C)c1ccc(OCC(=O)Nc2cccc3c2CCCC3)cc1`, the “activity change, negative = inhibition” value was inactive: 0.431%.

As for `O=C(NCCc1ccc(Cl)cc1Cl)c1cc([N+](=O)[O-])c[nH]c1=O`, the “activity change, negative = inhibition” value was inactive: 1.72%.

With `O=C(COc1ccc(Cl)cc1)NCc1nnc(SCC(=O)NC2CCCCC2)o1`, the “activity change, negative = inhibition” value is inactive: 2.48%.

Turning to `CN(C)S(=O)(=O)c1cccc(-c2nnc(SCc3ccc4c(c3)OCCO4)o2)c1`, the “activity change, negative = inhibition” value was inactive: -1.33%.

Consider `Cc1ccc(OCCSc2ncccn2)c(C)c1`, for which the “activity change, negative = inhibition” value was inactive: 1.24%.

In the case of `CCN(C(=O)CSc1nnc(CNc2cccc(OC)c2)n1C1CCCCC1)C1CCS(=O)(=O)C1` (configuration not stated), the “activity change, negative = inhibition” value is inactive: 2.48%.

In the case of `COc1ccc(-c2csc3ncn(Cc4ccccc4)c(=O)c23)cc1`, the “activity change, negative = inhibition” value is inactive: 1.6%.

On to `CCOC(=O)c1c(NC(=O)/C=C/C(=O)O)sc(C)c1-c1ccc(C)c(C)c1`, for which the “activity change, negative = inhibition” value was inactive: -0.469%.
